# Reference: PubChem BioAssay AID686970 (National Center for Advancing Translational Sciences (NCATS), 2013)
# About 6,000 (1.7%) of roughly 360,000 compounds were called active. The inconclusive results got no clear call from the source; some entries with a clear call stand among them for comparison. Calls follow the shape of the dose curve; as a rule, active = well fitted cell-killing curve with a large enough effect; inconclusive = small, poorly fitted or top-dose-only effect, or effect the other way; inactive = flat fitted curve, though single readings scatter. No potency is given beside an inconclusive call; the fits are too rough.
# Assay: qHTS for induction of synthetic lethality in tumor cells producing 2HG: qHTS for the HT-1080-NT fibrosarcoma cell line;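 also: NT is the 2HG producing partner of a matched IDH1 knockdown line; nearly all actives have a fitted effect of over 55% in size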;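 as to activity, negative = less viability: 0% = DMSO-treated cells and -100% = media-only wells without cells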
# Settings: HT-1080-NT fibrosarcoma viability, CellTiter-Glo ATP luminescence, 48 h; activity, negative = less viability: at 46.1 µM (top of the series) unless noted
# Method in brief: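 Fibrosarcoma NT cells, 750 per well in 5% FBS RPMI, were exposed to compound for 48 hours. Viability: CellTiter-Glo luminescence.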
# Potency is read from the fitted curve at half-maximal effect; tags tell the direction and shape of the fitted curve.
Compound,Potency,"activity, negative = less viability"
CC1CCCC2(C1)NC(=S)N(c1ccccc1)N2 (stereo not drawn),"inconclusive [cytotoxic, full curve]",
CCn1nc(C)c(C(=O)Nc2cc(Oc3cc(C)cc(C)c3)cc([N+](=O)[O-])c2)c1C,"inconclusive [cytotoxic, single point]",
COc1ccc(CCn2nnnc2C(c2ccc(Cl)cc2)N2CCN(C)CC2)cc1OC (stereo not drawn),,inactive: -8.87%
COC(=O)c1sc(-c2cccs2)cc1NC(=O)/C=C/C(=O)O,"inconclusive [cytotoxic, single point]",
O=C(Nc1ccc(N2CCOCC2)c(Cl)c1)c1ccc(-n2cnnc2)cc1,,inactive: 4.78%
CCOC(=O)C1=C(CNCCc2ccc(Cl)cc2)NC(=O)NC1c1ccc2c(c1)OCO2 (stereo not drawn),"inconclusive [cytotoxic, single point]",
CCOc1ccc(C(=O)NCC(c2cccs2)N2CCOCC2)cc1 (stereo not drawn),,inactive: 5.17%
Cc1cc(O)c(-c2cc(O)c(C)cc2O)cc1O,"inconclusive [cytotoxic, single point]",
O=C(Nc1ccc(Cl)cn1)c1cccc2c(Br)cccc12,"inconclusive [cytotoxic, single point]",
COc1ccc(/C(O)=C/C(=O)C(=O)NNC(=O)c2ccccc2)cc1,,inactive: 4.08%
COC(=O)C(C)Oc1ccc(-c2nccc(-c3ccccn3)n2)cc1 (stereo not drawn),"inconclusive [rising, partial curve]",
O=C(N/N=C/c1c[nH]c2ccc(Br)cc12)c1ccncc1,"inconclusive [cytotoxic, single point]",
CC(C)NC(=NCc1ccc(Cl)cc1Cl)Nc1ccccc1,"inconclusive [cytotoxic, single point]",
COc1ccc(CN(C)CC2CCCN(CCc3ccc(Cl)cc3)C2)cc1OC (stereo not drawn),active: 29.1 µM,
C[N+](C)(C)CCCCCC[N+](C)(C)C,"inconclusive [rising, full curve, poor fit]",
COc1ccc(Cl)cc1N(C(=O)c1ccco1)C(C(=O)NC1CCCC1)c1ccncc1 (stereo not drawn),"inconclusive [rising, partial curve, poor fit]",
Cc1cc2oc(C(=O)Nc3c(C)n(C)n(-c4ccccc4)c3=O)c(C)c2cc1Cl,"inconclusive [cytotoxic, partial curve]",
c1coc(C2Nc3ccccc3-c3nc4ccccc4n32)c1 (stereo not drawn),"inconclusive [cytotoxic, single point]",
Cn1c(=O)c([N+](=O)[O-])c(-n2ccnc2)c2ccccc21,active: 16.4 µM,
Cc1cc(F)ccc1C(O)c1ncc(-c2cccc(OCc3ccccc3)c2)[nH]1 (stereo not drawn),"inconclusive [cytotoxic, single point]",
COc1cccc(/C=N/NC(=O)c2cnccn2)c1O,"inconclusive [cytotoxic, partial curve]",
Cc1cc(C(=O)COC(=O)C2=NNC(=O)CC2)c(C)n1-c1ccccc1,,inactive: 24.9%
CCCCNC(=S)N1CCC(Cc2ccccc2)CC1,"inconclusive [cytotoxic, single point]",
CSc1nc(N)nc2c1ncn2CC(=O)N1CCN(Cc2c(C)cc(C)cc2C)CC1,"inconclusive [cytotoxic, full curve]",

Compound,Potency,"activity, negative = less viability"
COc1ccc(S(=O)(=O)N2CCC(C)CC2)cc1N(C)S(=O)(=O)c1ccccc1,,inactive: 6.31%
COc1ccc2c(c1)OC[C@H]1[C@H]2N2C(=O)c3cc(OC)ccc3NC(=O)[C@@]2(C)[C@H]1c1ccccc1,"inconclusive [cytotoxic, single point]",
O=C(N/N=C/C=C/c1ccccc1)c1cc(C2CC2)[nH]n1,,inactive: -1.89%
O=C(COC(=O)c1cccc(NS(=O)(=O)c2ccc(F)c(F)c2)c1)NC(=O)NC1CCCCC1,"inconclusive [cytotoxic, single point]",
O=C(NCc1cccc(Cl)c1)NCc1cccc(Cl)c1,,inactive: -6.16%
CCC(C)(C)c1ccc(OCCCC[n+]2cccc(C)c2C)c(C(C)(C)CC)c1,active: 14.6 µM,
N#C/C(=N\Nc1cccc([N+](=O)[O-])c1)C(=O)c1ccc(Br)cc1,active: 5.8 µM,
CC(=O)NC/C(C)=N\Nc1ccc([N+](=O)[O-])cc1,active: 4.61 µM,
S=c1nc(-c2sccc2OCc2ccc(Cl)cc2Cl)[nH][nH]1,,inactive: -8.76%
CN(C)CCCN(C(=O)C1=COCCO1)c1nc2ccc(Br)cc2s1,active: 20.6 µM,
CC(C)c1cccc(C(C)C)c1OC(=O)NC(=O)c1c(F)cccc1F,,inconclusive: -31.1% [cytotoxic]
CC(=O)C1=C(O)C(=O)N(CCNCCO)C1c1ccccc1 (stereo not drawn),,inactive: -1.82%
Cc1c(CCNC=O)cc(C)c2c3c(oc12)CCCC3,,inactive: 0.121%
Cc1cc(NC(=O)c2ccco2)ccc1NC(=O)c1ccco1,"inconclusive [cytotoxic, partial curve]",
CCc1ccc(-n2cc(-c3ccc([N+](=O)[O-])cc3)[nH]c2=S)cc1,,inactive: 0.17%
CCCCN1/C(=C/c2ccc3ccccc3[n+]2CC)Sc2ccccc21,"inconclusive [cytotoxic, partial curve]",
CCn1c(CCC(=O)Nc2cc(F)ccc2C)nc2cc(S(=O)(=O)N(C)C)ccc21,,inactive: 7.95%
CS(=O)(=O)N1CCN(c2ccccc2NC(=O)c2ccc(Br)o2)CC1,"inconclusive [cytotoxic, partial curve]",
O=C(NNc1ccccc1)/C(=C\c1cccnc1)NC(=O)c1ccccc1,,inactive: -14.6%
NS(=O)(=O)c1ccc(NNC(=O)c2ccc(Br)o2)c([N+](=O)[O-])c1,,inactive: -5.31%
C=CCNC(=S)NNC(=O)c1csc(C)c1CC,"inconclusive [cytotoxic, single point]",
O=C(c1ccc2c(=O)n(Cc3ccccc3Cl)c(=S)[nH]c2c1)N1CCOCC1,,inactive: 17.8%
CCc1c(C2CC2)ncn1Cc1cccc(-c2ccccc2)c1,active: 20.6 µM,
COc1ccc2c(C)nc(Nc3nc(C)c(C)c(=O)[nH]3)nc2c1,"inconclusive [cytotoxic, single point]",
